In all, about 310,000 compounds went through this assay and about 2,200 (0.71%) showed an effect of 50% or more. Effects have a minus sign here. The list shows a part of the results. Where a SMILES comes first, the peptide text is derived from it. [ ]: non-standard residue; d: D form. The star is where a group is joined. Hyp = O=C(O)[CH]1C[CH](O)CN1; Cbz = O=C(OCc1ccccc1)*; OBn = c1ccc(CO*)cc1
These compounds were tested against human ether-à-go-go-related gene (hERG) potassium channel (human, UniProt Q12809) (assay: primary screen, population patch clamp on CHO cells stably expressing hERG).
Sequence of human ether-à-go-go-related gene (hERG) potassium channel (Q12809 whole entry, looked up): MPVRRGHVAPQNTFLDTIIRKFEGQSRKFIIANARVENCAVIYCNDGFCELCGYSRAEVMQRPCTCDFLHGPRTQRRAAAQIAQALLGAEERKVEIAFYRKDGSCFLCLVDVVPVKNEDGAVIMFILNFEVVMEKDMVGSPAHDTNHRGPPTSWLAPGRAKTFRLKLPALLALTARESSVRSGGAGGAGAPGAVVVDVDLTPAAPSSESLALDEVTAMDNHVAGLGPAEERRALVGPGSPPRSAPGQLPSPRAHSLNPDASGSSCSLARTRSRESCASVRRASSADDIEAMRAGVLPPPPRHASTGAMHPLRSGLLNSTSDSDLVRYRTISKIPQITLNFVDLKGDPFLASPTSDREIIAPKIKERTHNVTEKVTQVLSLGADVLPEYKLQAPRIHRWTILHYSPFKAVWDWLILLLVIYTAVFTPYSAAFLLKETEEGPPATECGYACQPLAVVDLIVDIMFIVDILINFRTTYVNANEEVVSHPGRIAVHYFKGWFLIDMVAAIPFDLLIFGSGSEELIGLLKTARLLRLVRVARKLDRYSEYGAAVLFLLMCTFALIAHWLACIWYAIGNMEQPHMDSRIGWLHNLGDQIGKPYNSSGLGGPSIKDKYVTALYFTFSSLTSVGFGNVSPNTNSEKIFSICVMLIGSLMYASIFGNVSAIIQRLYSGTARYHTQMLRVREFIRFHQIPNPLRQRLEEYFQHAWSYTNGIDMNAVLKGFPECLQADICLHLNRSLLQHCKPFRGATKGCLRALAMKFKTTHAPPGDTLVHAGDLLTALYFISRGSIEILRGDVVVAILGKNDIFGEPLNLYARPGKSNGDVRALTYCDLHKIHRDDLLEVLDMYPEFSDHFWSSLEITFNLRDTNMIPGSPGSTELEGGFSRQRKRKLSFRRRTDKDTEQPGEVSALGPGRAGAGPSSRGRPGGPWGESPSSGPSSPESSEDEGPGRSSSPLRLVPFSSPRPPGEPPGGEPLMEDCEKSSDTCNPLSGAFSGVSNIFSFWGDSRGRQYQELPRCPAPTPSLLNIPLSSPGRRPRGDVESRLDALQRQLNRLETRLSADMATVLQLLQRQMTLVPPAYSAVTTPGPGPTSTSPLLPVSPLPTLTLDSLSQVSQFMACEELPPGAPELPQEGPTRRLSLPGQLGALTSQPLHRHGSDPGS

| Structure (SMILES) | hERG current change (%, negative = inhibition) at 1uM [%] |
| --- | --- |
| Cc1nnsc1NC(=O)OCc1ccc(Cl)cc1Cl | 2.17 |
| CCOc1ccccc1OCCOCCOc1c(Cl)cccc1Cl | 6.46 |
| Nc1c(C(=O)Nc2ccccc2F)sc2nc(-c3cccnc3)ccc12 | 21 |
| Cc1cc(CCCCCCCCc2cc(C)cc(=O)o2)oc(=O)c1 | 13.2 |
| COc1cc(C(=O)OCC(=O)Nc2ccc(C)cc2)cc(OC)c1OC | 14.1 |
| Cc1ccccc1C(=O)c1c[nH]c(C(N)=O)c1 | 7.7 |
| Clc1ccccc1-c1ccc2ncnc(NCc3ccc4c(c3)OCO4)c2c1 | 16.4 |
| CC(NC(=O)CNC(=O)OCc1ccccc1)C(=O)N1CC(O)CC1C(=O)OCc1ccccc1 (stereo not drawn) (Cbz-Gly-Ala-[Hyp]-OBn; configuration not given here) | 13.7 |
| COc1ccc(CN(C(=O)Cn2nnc3ccccc32)C(C(=O)NC(C)(C)C)c2ccco2)cc1 (centres unmarked) | 0.341 |
| Cc1cc(C)n2c3c(c(C#N)c2n1)CC(C)(C)OC3 | 10.4 |
| Clc1ccc(-c2noc(CN(Cc3ccccn3)CC3CCCO3)n2)cc1 (centres unmarked) | 0.387 |
| N#Cc1c2c(c(Nc3ccccc3)n3c1nc1ccccc13)CCC2 | 10.4 |
| O=C(Nn1c(-c2ccncc2)nc2ccccc2c1=O)c1ccc(Br)cc1 | 0.826 |
| CCOC(=O)C1=C(COC(=O)C2CC(=O)N(c3ccc(CC)cc3)C2)NC(=O)NC1C (centres unmarked) | 9.71 |
| c1ccc(-n2ncc3c(N4CCN(c5ccccn5)CC4)nc(N4CCCCCC4)nc32)cc1 | 4.45 |
| CC(C)(C)c1cc([N+](=O)[O-])cc(C(C)(C)C)c1O | 4.13 |
| COc1ccc(/C=C/C(=O)Nc2ccccc2C(=O)O)cc1 | 6.8 |
| CCOc1ccc(OCC)c(NC(=O)CCn2cccc2)c1 | 8.35 |
| O=C(c1cc(Cl)cc(Cl)c1)N1CCC(=O)N(C(COCc2ccccc2)Cc2ccccc2)CC1 (centres unmarked) | 8.01 |
| COc1ccc(NC(=O)CN(C)CCOc2ccc(Cl)cc2)cc1OC.O=C(O)C(=O)O | 8.34 |
| CC(=O)c1c(C)nn(CCC(=O)O)c1C | 12.2 |
| CC(=O)Nc1ccc(S(=O)(=O)N(C)CC(=O)OC(C)C(=O)N(C)C2CCCCC2)cc1 (centres unmarked) | 10.1 |

| Structure (SMILES) | hERG current change (%, negative = inhibition) at 1uM [%] |
| --- | --- |
| Cc1cc(C)n(CC(O)COc2ccccc2C(=O)Nc2ccccc2)n1 (centres unmarked) | 7.38 |
| O=C(C1CCCN(C2CC(=O)N(c3ccc(F)cc3)C2=O)C1)N1CCCC1 (centres unmarked) | 13.8 |
| CCOC(=O)C1CCCN(C(=O)c2ccccc2NC(=O)C2=C(C)OCCS2)C1 (centres unmarked) | 21.6 |
| CC(C)(C)C(=O)N1CCN(C(c2ccccc2)c2ccccc2)CC1 | 7.71 |
| Cc1ccc(-n2ncc3c(NNC(=O)c4ccco4)ncnc32)c(C)c1 | 17.8 |
| O=C(Nc1nn(Cc2ccccc2F)cc1Br)c1cccs1 | 1.57 |
| COCCn1c(SCC(=O)Nc2cccc(OC)c2)nc2c(oc3ccccc32)c1=O | -9.21 |
| CCOC(=O)c1ccc(NC(=S)N2CCN(S(C)(=O)=O)CC2)cc1 | 4.07 |
| Cl.O=[N+]([O-])c1cc(S(=O)(=O)CCCN2CCOCC2)ccc1F | 11.5 |
| Cc1cc(C(=O)CSCCCn2c(=O)[nH]c3ccccc32)c(C)n1C | 15.7 |
| O=C(CC1(C(=O)O)CCCC1)N1CCOCC1 | 1.14 |
| Cc1c(C(=O)N(Cc2cccc(Br)c2)C2CCS(=O)(=O)C2)oc2ccccc12 (centres unmarked) | 11.5 |
| CC(C)(CC(=O)O)CC(=O)Nc1ccccc1Oc1ccccc1 | -0.446 |
| CCC(CC)C(=O)Nc1cc([N+](=O)[O-])ccc1F | 12 |
| Cc1ccc(NS(=O)(=O)c2ccc(Cl)c(NC(=S)NC(=O)C3CCCCC3)c2)cc1Cl | 10.8 |
| CC(C)c1nc2c(c(=O)c3ccccc3n2C)c(=O)n1CCc1ccccc1 | 7.37 |
| Cc1cccc(C(=O)NNC(=O)c2ccc(NC(=O)C(C)(C)C)cc2)c1 | 12.5 |
| Cc1cc(/C=N/n2cnnc2)c(C)n1-c1ccc(OCc2ccc(F)cc2)cc1 | 14.1 |
| Cc1ccc(S(=O)(=O)CCC(=O)OCc2ccc(Cl)c(Cl)c2)cc1 | -1.11 |
| CC(C)NC(=O)NC(=O)CSc1ncccn1 | 4.96 |
| COc1ccc(N(C(C)C(=O)Nc2ccc(S(=O)(=O)N3CCOCC3)cc2)S(C)(=O)=O)cc1 (centres unmarked) | 12.6 |
| CCOc1ncccc1C(=O)OCC(=O)c1ccccc1 | 13.2 |

| Structure (SMILES) | hERG current change (%, negative = inhibition) at 1uM [%] |
| --- | --- |
| Cc1ccc(NC(=O)Cn2c(/C=C/c3ccccc3)nc3ccccc32)cc1C | 1.95 |
| CCOC(=O)C1CCN(C(=O)c2ccc(NS(=O)(=O)c3ccc(F)cc3C)cc2)CC1 | -3.51 |
| COc1ccc(CN2CC=C(c3ccc(F)cc3)CC2)cc1Br | 10.3 |
| COc1ccccc1N(CC(=O)NCCSCc1cccc(Cl)c1)S(C)(=O)=O | -14.2 |
| COc1ccc(C(=O)c2c(C)oc3cc([N+](=O)[O-])c(O)c([N+](=O)[O-])c23)cc1 | 8.59 |
| CCN(CC)CCn1c2ccccc2c2cnc(N=CN(C)C)c(C#N)c21 | -18.4 |
| CC(OC(=O)CNS(=O)(=O)c1ccc2ccccc2c1)C(=O)N(C)c1ccccc1 (centres unmarked) | 13.4 |
| O=C(N=c1ccn(-c2nc3ccccc3nc2NS(=O)(=O)c2ccc(Cl)cc2)cc1)c1ccccc1Cl | 6.49 |
| Cc1cc(=O)c(C(=O)O)cn1-c1ccc(C(C)C)cc1 | 6.7 |
| COc1ccc(S(=O)(=O)NC(Cc2ccccc2)C(=O)O)cc1 (centres unmarked) | 10.6 |
| CCOC(=O)C(Cc1ccccc1)(NC(C)=O)C(=O)OCC | 14.4 |
| O=C(CNCCN1CCOCC1)Nc1ccccc1Sc1ccccc1.O=C(O)C(=O)O | 1.74 |
| COCCN1C(=O)N[C@@H](c2ccco2)C(C(=O)OC)=C1C | 8.11 |
| CN(C)CCNC(=O)c1coc(=O)c(Br)c1 | 10.9 |
| CCOC(=O)c1c(NC(=O)Cn2ccsc2=N)sc(C)c1C.Cl | -1.96 |
| CC(c1nc2ccccc2c(=O)[nH]1)N1CCCN(S(=O)(=O)c2ccc(F)cc2)CC1 (centres unmarked) | -7.16 |
| Cc1ccccc1CS(=O)(=O)Cc1ccc(C(=O)NCCCN2CCCC2=O)o1 | 7.69 |
| CCCCOC(=O)CSc1nnc(-c2ccc(Cl)cc2Cl)o1 | 7.82 |
| NC(=O)c1ccccc1NC(=S)NC(=O)CCc1ccccc1 | 6.72 |
| CCN1CCN(CCCN(Cc2ccco2)C(=S)Nc2cccc(Cl)c2C)CC1 | -8.07 |
| O=C1c2cccc3cccc(c23)C(=O)N1c1cccnc1 | 17.3 |
| CC(C)C[C@H](NC(=O)NC1CCCc2ccccc21)C(=O)O (some centres unmarked) | 9.1 |

| Structure (SMILES) | hERG current change (%, negative = inhibition) at 1uM [%] |
| --- | --- |
| CCN(CC)CCCN1C(=O)C(=O)/C(=C(/O)c2cc(C)ccc2C)C1c1cccnc1 (centres unmarked) | 3.66 |
| CCCCNC(=O)N(CC)c1c(N)n(Cc2ccccc2)c(=O)[nH]c1=O | 6.73 |
| O=C1CC(c2cccc(Cl)c2)CC(O)=C1C=Nc1cccc(Cl)c1 (centres unmarked) | 3.81 |
| Cc1cccn2c(=O)c3cc(C(=O)NCCN4CCOCC4)c(=N)n(CCN4CCOCC4)c3nc12 | 12.2 |
| Cc1ccc(-c2nnnn2CS(=O)(=O)c2ccccc2)cc1 | 10.2 |
| CC(C)(C)OC(=O)N[C@@H](Cc1ccccc1)C(=O)N1CCC(C(=O)NCC(=O)O)CC1 | 5.87 |
| CCOc1ccc(NC(=O)COc2ccc(C(=O)N3CCC(C(N)=O)CC3)cc2OC)cc1 | 11.1 |
| CC(C)CC1NC(=O)N(CC(=O)N2CCN(S(=O)(=O)c3ccccc3)CC2)C1=O (centres unmarked) | 8.79 |
| CCC(=O)c1ccccc1OCCCn1cncn1 | 6.77 |
| Cc1ccc(C(C)C)c(OCCCCN2CCNCC2)c1.O=C(O)C(=O)O | 8.87 |
| Cc1ccc(S(=O)(=O)NCCC(=O)OCc2ccc([N+](=O)[O-])cc2)cc1C | 5.55 |
| OC1CCCN(c2c3c(nc4cc(-c5cccc(Cl)c5)nn24)CCC3)C1 (centres unmarked) | 4.89 |
| c1ccc(C2=NOC(c3nnc(-c4ccccc4)o3)C2)cc1 (centres unmarked) | -26.2 |
| COc1ccccc1S(=O)(=O)Nc1ccc2cn[nH]c2c1 | 10.6 |
| S=C1NC2(CCCCCC2)N=C1c1ccccc1 | 10.2 |
| O=C(/C=C/c1ccco1)N/C(=C\c1ccccc1)C(=O)NCCc1nc2ccccc2[nH]1 | -3.22 |
| Cc1cc(C)c2c(=O)[nH]c(SCc3ccc([N+](=O)[O-])cc3)nc2n1 | 5.09 |
| COc1ccc(C2CCCN2C(=S)Nc2ccc(C)cc2C)cc1OC (centres unmarked) | -5.37 |
| COc1ccc(/C(N)=N/OC(=O)C2CCCCC2)cc1OC | 13.8 |
| CC1CCC(N2CC(=O)N(Cc3ccc4c(c3)OCO4)C(c3ccc(F)cc3)C2=O)CC1 (centres unmarked) | -5.74 |

Source: article PMC4336329 (PLoS ONE, 2015)
